Reference: PubChem BioAssay AID360 (National Center for Advancing Translational Sciences (NCATS), 2006)
Out of some 48,000 compounds screened, about 550 (1.1%) were called active. Inconclusive results (about 4%) are left out. No stated cut-off is given here; in the data, active means potency below about 15 µM; inconclusive means mostly about 16 µM to 33 µM; inactive means weaker than that. This is one part of the list.

molecular target: Lysosomal acid glucosylceramidase (Homo sapiens) (UniProt P04062); assay: Glucocerebrosidase; settings: purified enzyme, resorufin glucoside fluorescence (screen aimed at inhibitors), 20 min;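 further: the screen sought inhibitors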
UniProt P04062, sequence (P04062 whole entry, looked up): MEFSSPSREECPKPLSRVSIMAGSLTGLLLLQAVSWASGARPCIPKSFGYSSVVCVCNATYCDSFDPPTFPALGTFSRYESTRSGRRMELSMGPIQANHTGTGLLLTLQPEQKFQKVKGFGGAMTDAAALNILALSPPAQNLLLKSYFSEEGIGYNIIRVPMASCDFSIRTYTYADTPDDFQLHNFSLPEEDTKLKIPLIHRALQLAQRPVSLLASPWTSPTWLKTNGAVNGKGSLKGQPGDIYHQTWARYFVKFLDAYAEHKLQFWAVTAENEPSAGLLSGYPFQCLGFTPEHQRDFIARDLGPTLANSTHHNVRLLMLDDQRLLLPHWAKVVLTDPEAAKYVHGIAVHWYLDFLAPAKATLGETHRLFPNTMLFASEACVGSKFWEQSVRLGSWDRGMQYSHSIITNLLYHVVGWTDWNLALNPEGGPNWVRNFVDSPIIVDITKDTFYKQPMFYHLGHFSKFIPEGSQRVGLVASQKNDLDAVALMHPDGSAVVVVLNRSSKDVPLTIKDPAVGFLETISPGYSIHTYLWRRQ
How it was run: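 Normal human glucocerebrosidase (0.2 nM final) was assayed with resorufin β-D-glucopyranoside (30 uM final) in 50mM citric acid/KH2PO4, 10mM sodium taurocholate, 0.01% tween-20, pH 5.9. Compounds were titrated; fluorescence (Ex 548, Em 600) read after 20 min at RT.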
Potency means the concentration at half of the fitted maximal effect.

Potency, inactive:
Cc1nc2ccccn2c1/C(O)=C1\C(=O)C(=O)N(CCN2CCOCC2)C1c1cccs1 (configuration not stated) > 76.9 µM
CC[C@@H](C)[C@H](NC(=O)OC(C)(C)C)c1nnc(S(=O)(=O)Cc2cc(C)ccc2C)o1 > 76.9 µM
CCCN1C2CCCC1CC(NC(=O)c1ccc(F)cc1)C2 (configuration not stated) > 76.9 µM
CCN(CC)S(=O)(=O)c1cccc(-c2nnc(SCC(N)=O)n2CCc2ccccc2)c1 > 76.9 µM
CCc1nc2oc3ccccc3c(=O)c2c(=O)n1-c1ccccc1 > 76.9 µM
COc1ccc(-n2c(N)c(-c3nc4ccccc4n3C)sc2=S)cc1 > 76.9 µM
Cc1nc(C)c(C(=O)OCC(=O)N2CCN(c3ccccc3)CC2)s1 > 76.9 µM
Cc1ccc(-c2nc(C3CCN(S(=O)(=O)c4ccc(C(F)(F)F)cc4)CC3)no2)cc1 > 76.9 µM
COc1ccccc1-c1cc(C(=O)Nc2ccc(F)cc2F)no1 > 76.9 µM
Cc1onc(-c2ccccc2)c1C(=O)N1CCCN(C(=O)c2c(-c3ccccc3)noc2C)CC1 > 76.9 µM
Cc1cc(C)nc(NC(=O)c2c(-c3c(Cl)cccc3Cl)noc2C)n1 > 76.9 µM
CC(OC(=O)c1cccc(NS(C)(=O)=O)c1)C(=O)Nc1ccc(N2CCOCC2)cc1 (configuration not stated) > 76.9 µM
CCn1c2ccccc2c2cc(/C=N/n3cnnc3)ccc21
CCCn1c(=O)[nH]c(=O)c2c1nc(-c1ccccc1OC(F)F)n2CCOC > 76.9 µM
CCOc1ccccc1N1CCN(C(=O)c2cccc(-c3ccc(O)cc3)c2)CC1 > 76.9 µM
C=C1C2(C(=O)NCc3ccco3)CCC(C2)C1(C)C (configuration not stated) > 76.9 µM
CC(C)NS(=O)(=O)c1ccc(CCC(=O)NCc2cccnc2)cc1 > 76.9 µM
CCCCOc1ccc(C(=O)Nc2ccc(N3CCN(C(=O)C(C)C)CC3)cc2)cc1 > 76.9 µM
CCCCC1CCC(C(=O)NC2CCS(=O)(=O)C2)CC1 (configuration not stated)
CC1Cc2ccccc2N1C(=O)COc1cccc(-n2cnnn2)c1 (configuration not stated) > 76.9 µM
Cc1ccnc(N2CCC(C(=O)NCc3ccc4c(c3)OCO4)CC2)n1 > 76.9 µM
O=S1(=O)CCC(SCc2nc3sccn3c2Br)C1 (configuration not stated) > 76.9 µM
CCOc1[nH]c(/N=C/c2ccco2)c(C#N)c1C#N
COc1nc(C)ccc1-c1noc(-c2ccccn2)n1 > 76.9 µM
COc1ccc(C(=O)CSc2nnc(-c3cnccn3)n2Cc2ccco2)cc1 > 76.9 µM
Cc1ccc(-n2nnnc2SCC(=O)N2CCN(C(=O)c3ccco3)CC2)c(C)c1 > 76.9 µM
COc1cccc(NC2=NCC(=O)N2Cc2cccs2)c1 > 76.9 µM
CCOC(=O)c1c(C)n(C)c2ccc(OC)c(NS(=O)(=O)c3ccc(Cl)s3)c12 > 76.9 µM
Cc1ccc(-n2c(CSc3nc(C)cc(C)n3)nnc2SCC(=O)N2CCCC2)cc1 > 76.9 µM
OCCNc1nc(C2CC2)nc2c1nnn2Cc1ccccc1Cl > 76.9 µM
CC(C)NCC(O)COCc1ccc(Cl)cc1 (configuration not stated) > 76.9 µM
Cc1c2c(nc3c(C(=O)NC4CC4)cnn13)CCCC2 > 76.9 µM
CN(C)C(=O)CN1C(=O)C2CCCCN2C(=O)c2ccccc21 (configuration not stated) > 76.9 µM
Cc1cccc(-n2ccnc2SCC(=O)Nc2ccc3c(c2)OCCO3)c1 > 76.9 µM
O=C(O)CN1C(=O)CC(Cc2ccccc2)C1=O (configuration not stated) > 76.9 µM
COC(=O)c1cc(NCc2c(F)cccc2Cl)ccc1N1CCOCC1 > 76.9 µM
CCC(C)(C(=O)NC1CCCC1)N(C(=O)c1cnccn1)c1c(C)n(C)n(-c2ccccc2)c1=O (configuration not stated) > 76.9 µM
O=C(Cn1cccc1)NC1CCCCCC1 > 76.9 µM
COCc1nnc(NC(=O)CCCOc2ccccc2)s1 > 76.9 µM
O=C1CCN2C=Nc3cccc4ccc1c2c34 > 76.9 µM
NC(=O)CSc1nnc(CNc2ccc(F)cc2)n1CC1CCCO1 (configuration not stated) > 76.9 µM
CCOc1ccc(CCNS(=O)(=O)c2cnc[nH]2)cc1OCC > 76.9 µM
Nn1cc(-c2ccccc2)nc1SCC(=O)N1CCN(S(=O)(=O)c2ccc(Cl)cc2)CC1 > 76.9 µM
CN(C)S(=O)(=O)N1CCN(CC(=O)Nc2cc(Cl)ccc2Cl)CC1 > 76.9 µM
COc1ccc(OC)c(C2=NO[C@@H]3C(=O)N(c4cc(Cl)ccc4OC)C(=O)[C@H]23)c1 > 76.9 µM
FC(F)(F)c1cc(-c2ccco2)nc(-n2nnc3ccccc32)n1 > 76.9 µM
CC(=O)NC(Cc1ccc(F)cc1)C(=O)N1CCN(C(=O)NCc2ccccc2)CC1 (configuration not stated) > 76.9 µM
O=C(CSc1ccc2c(c1)OCCO2)NC(=O)NC1CCCC1 > 76.9 µM
CCn1cc(C(=O)N2CCCc3ccccc32)c2cc(OC)c(OC)cc2c1=O > 76.9 µM
CCOCCCNC(=O)c1c[nH]c2ccc(S(=O)(=O)Nc3cccc(OC)c3)cc2c1=O > 76.9 µM
CCCc1cc(=O)n2c(nc3ccccc32)[nH]1 > 76.9 µM
CCc1ccc(S(=O)(=O)NCc2csc(-c3ccccc3)n2)s1 > 76.9 µM
Cc1cc(NC(=O)c2cc3n(n2)C(C(F)(F)F)CC(c2ccc(Cl)c(Cl)c2)N3)no1 (configuration not stated) > 76.9 µM
CC(=O)C(C)Oc1cc(C)cc2oc(=O)c(C)c(C)c12 (configuration not stated) > 76.9 µM
CC1Cc2ccccc2N1c1ncnc2c1nnn2Cc1ccccc1 (configuration not stated) > 76.9 µM
CN(C(=O)c1cnccn1)c1nnc(-c2cccnc2)s1 > 76.9 µM
COc1ccc(OC)c(CN2C(=O)CCC2(C)C(=O)NC2CCCCCC2)c1 (configuration not stated) > 76.9 µM
